Data published in the supplement of paper PMC4967469.
pIC50: −log10 of the molar value. IC50 is the fitted dose that halves viability relative to control wells, and lower means more sensitive; a fit beyond the top or the lowest dose is shown as a bound at that dose. For AUC the same curve is integrated over the 256-fold range of doses and scaled to a fraction; values near 1 show little effect. For part of these data: An inferred top dose comes from the curve model; the source does not state it.

How the values were obtained:
Assay in all cases: Viability of human cancer cell lines after 72 h of drug (GDSC screen)
SGC0946 = compound: CC(C)N(CCCNC(=O)Nc1ccc(C(C)(C)C)cc1)C[C@H]1O[C@@H](n2cc(Br)c3c(N)ncnc32)[C@H](O)[C@@H]1O [SGC0946]; details: top dose 0.5 µM; top dose inferred
Protocol: (§1)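 Human cancer cell lines in 384-well plates, medium with 10% serum, drug for 72 h over a 256-fold dose range (nine 2-fold or five 4-fold steps up to the top dose). Adherent lines were fixed and stained with the nucleic acid dye Syto60, suspension lines read with resazurin; signal relative to control wells, capped at 0 and 100%. One two-parameter sigmoid per drug and line, fitted in a mixed model over all curves with the slope shared within a line.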

Bryostatin 1 = compound: CCC/C=C/C=C/C(=O)O[C@H]1/C(=C/C(=O)OC)C[C@H]2C[C@H]([C@@H](C)O)OC(=O)C[C@H](O)C[C@@H]3C[C@H](OC(C)=O)C(C)(C)[C@](O)(C[C@@H]4C/C(=C/C(=O)OC)C[C@H](/C=C/C(C)(C)[C@]1(O)O2)O4)O3 [Bryostatin 1]; details: top dose 0.008 µM; top dose inferred
Protocol: as §1

GW-2580 = compound: COc1ccc(COc2ccc(Cc3cnc(N)nc3N)cc2OC)cc1 [GW-2580]; details: top dose 20 µM; top dose inferred
Protocol: as §1

VX-680 = compound: Cc1cc(Nc2cc(N3CCN(C)CC3)nc(Sc3ccc(NC(=O)C4CC4)cc3)n2)n[nH]1 [VX-680]; details: top dose 2 µM
Protocol: as §1

Lenalidomide = compound: Nc1cccc2c1CN(C1CCC(=O)NC1=O)C2=O [Lenalidomide]; details: top dose 5 µM; top dose inferred
Protocol: as §1

| Cell Line | AUC (SGC0946) | pIC50 (SGC0946) | AUC (Bryostatin 1) | pIC50 (Bryostatin 1) | AUC (GW-2580) | pIC50 (GW-2580) | AUC (VX-680) | pIC50 (VX-680) | AUC (Lenalidomide) | pIC50 (Lenalidomide) |
| --- | --- | --- | --- | --- | --- | --- | --- | --- | --- | --- |
| RS4-11 (leukaemia, suspension) | 0.987 | < 6.30 | 0.948 | < 8.10 | 0.988 | < 4.70 | 0.303 | 7.43 |  |  |
| SU-DHL-8 (B-cell lymphoma, suspension) | 0.982 | < 6.30 | 0.791 | 8.48 | 0.988 | < 4.70 | 0.411 | 7.14 |  |  |
| MOLM-13 (acute myeloid leukaemia, suspension) | 0.977 | < 6.30 | 0.961 | < 8.10 | 0.985 | < 4.70 | 0.287 | 7.49 |  |  |
| SIG-M5 (acute myeloid leukaemia, suspension) |  |  | 0.718 | 8.76 | 0.972 | < 4.70 | 0.507 | 6.89 |  |  |
| NCI-H1355 (lung adenocarcinoma, adherent) | 0.961 | < 6.30 | 0.905 | < 8.10 | 0.974 | < 4.70 | 0.886 | < 5.70 |  |  |
| NALM-6 (B-cell leukaemia, suspension) | 0.982 | < 6.30 |  |  | 0.991 | < 4.70 | 0.38 | 7.21 |  |  |
| LOXIMVI (melanoma, semi-adherent) | 0.988 | < 6.30 | 0.986 | < 8.10 | 0.987 | < 4.70 | 0.94 | < 5.70 |  |  |
| TE-10 (oesophagus, adherent) | 0.986 | < 6.30 | 0.987 | < 8.10 | 0.985 | < 4.70 | 0.808 | 6.00 |  |  |
| NB-4 (acute myeloid leukaemia, suspension) | 0.991 | < 6.30 | 0.904 | 8.14 | 0.989 | < 4.70 | 0.616 | 6.61 |  |  |
| TC-71 (Ewing sarcoma, adherent) | 0.991 | < 6.30 | 0.987 | < 8.10 | 0.984 | < 4.70 | 0.983 | < 5.70 |  |  |
| HCC-33 (small cell lung carcinoma, adherent) |  |  | 0.985 | < 8.10 | 0.975 | < 4.70 | 0.918 | < 5.70 |  |  |
| HEL (acute myeloid leukaemia, semi-adherent) | 0.99 | < 6.30 | 0.949 | < 8.10 | 0.991 | < 4.70 | 0.9 | 5.75 |  |  |
| KP-N-YS (neuroblastoma, adherent) |  |  | 0.981 | < 8.10 | 0.983 | < 4.70 | 0.748 | 6.14 |  |  |
| EW-12 (Ewing sarcoma, suspension) |  |  |  |  |  |  | 0.977 | < 5.70 |  |  |
| HCE-4 (oesophagus, adherent) |  |  | 0.992 | < 8.10 | 0.984 | < 4.70 | 0.799 | 6.09 |  |  |
| BC-3 (B-cell lymphoma, suspension) |  |  | 0.989 | < 8.10 | 0.977 | < 4.70 | 0.959 | < 5.70 |  |  |
| HSC-39 (stomach, suspension) | 0.991 | < 6.30 | 0.991 | < 8.10 | 0.99 | < 4.70 |  |  | 0.991 | < 5.30 |
| COLO-824 (breast, adherent) | 0.985 | < 6.30 | 0.985 | < 8.10 | 0.988 | < 4.70 |  |  | 0.985 | < 5.30 |
| TGBC11TKB (stomach, adherent) | 0.99 | < 6.30 | 0.991 | < 8.10 | 0.99 | < 4.70 |  |  | 0.992 | < 5.30 |
| SBC-5 (small cell lung carcinoma, adherent) | 0.993 | < 6.30 | 0.911 | 8.11 | 0.991 | < 4.70 |  |  | 0.993 | < 5.30 |
| DG-75 (Burkitt lymphoma, suspension) | 0.984 | < 6.30 | 0.981 | < 8.10 | 0.982 | < 4.70 |  |  | 0.918 | < 5.30 |
| SU-DHL-5 (B-cell lymphoma, suspension) | 0.994 | < 6.30 | 0.99 | < 8.10 | 0.986 | < 4.70 |  |  | 0.994 | < 5.30 |
| LC-1-sq (lung squamous cell carcinoma, adherent) | 0.983 | < 6.30 | 0.982 | < 8.10 | 0.98 | < 4.70 |  |  | 0.947 | < 5.30 |
| EBC-1 (lung squamous cell carcinoma, adherent) | 0.981 | < 6.30 | 0.983 | < 8.10 | 0.981 | < 4.70 |  |  | 0.981 | < 5.30 |
| SK-OV-3 (ovary, adherent) | 0.979 | < 6.30 | 0.967 | < 8.10 | 0.974 | < 4.70 |  |  | 0.981 | < 5.30 |
| PANC-03-27 (pancreas, adherent) | 0.987 | < 6.30 | 0.979 | < 8.10 | 0.964 | < 4.70 |  |  | 0.988 | < 5.30 |
| NCI-H1648 (lung adenocarcinoma, adherent) | 0.982 | < 6.30 | 0.91 | < 8.10 | 0.968 | < 4.70 |  |  | 0.984 | < 5.30 |
| GT3TKB (stomach, adherent) | 0.989 | < 6.30 | 0.971 | < 8.10 | 0.986 | < 4.70 |  |  | 0.99 | < 5.30 |
| Capan-2 (pancreas, adherent) | 0.982 | < 6.30 | 0.98 | < 8.10 | 0.984 | < 4.70 |  |  | 0.984 | < 5.30 |
| H2722 (mesothelioma, adherent) | 0.982 | < 6.30 | 0.974 | < 8.10 | 0.983 | < 4.70 |  |  | 0.983 | < 5.30 |
